Data taken from ChEMBL document CHEMBL4888484, “Replenishing the malaria drug discovery pipeline: Screening and hit evaluation of the MMV Hit Generation Library 1 (HGL1) against asexual blood stage Plasmodium falciparum ,using a nano luciferase reporter read-out” (2022).
Among all 150,000 compounds or so, about 540 (0.36%) showed an effect of 50% or more. The list shows a part of the results.

These compounds were tested on Plasmodium falciparum (assay: Primary screen in NF54 nanoGlo assay, in single point, at 2uM, 72h; a lower Z score goes with more inhibition). Details: timepoint 72 hour.
Format: functional, Erythrocyte
In the case of `CN(Cc1nc[nH]n1)Cc1ccccc1S(N)(=O)=O`, the “% Inhibition” value is reported as -3% and the Z score is reported as 0.46.
`COC(=O)C1CCN(C(=O)C[C@H](C)Nc2cc(C)cc(C)c2)CC1` was tested, and the “% Inhibition” value was -8% and the Z score was 1.13.
In the case of `COc1cc(C(=O)N(Cc2ccccn2)c2ccc(F)cc2F)on1`, the “% Inhibition” value is reported as 3% and the Z score is reported as -0.49.
In the case of `Cn1nnc(CN2CCc3c(cccc3NS(C)(=O)=O)C2)n1`, the “% Inhibition” value is reported as -10% and the Z score is reported as 1.83.
For `CC[C@H](NC(=O)c1cnn(CC)c1)c1cccc(C)n1`, the “% Inhibition” value was 14% and the Z score was -1.84.
For `O=C(NCCc1cccnc1)[C@H]1CCCN(c2nnc3ccc(C(F)(F)F)cn23)C1`, the “% Inhibition” value was -14% and the Z score was 1.58.
With `CC1(C2(Nc3cc(C#N)ncn3)CC2)CC1` the “% Inhibition” value was -3% and the Z score was 0.67.
`CC(NC(=O)C(C)N1CCCC1c1ccc2c(c1)OCCCO2)c1ccc(F)cc1` (stereo not given) was tested, and the “% Inhibition” value was 18% and the Z score was -2.43.
In the case of `Cc1nc2c(s1)[C@@H](N(C)CCOc1ccc(C(=O)O)cc1Cl)CCC2`, the “% Inhibition” value is reported as 6% and the Z score is reported as -1.03.
With `CNC(=O)CN1CCC(NC(=O)c2ccc(-c3ccc(C)nn3)cc2)CC1` the “% Inhibition” value was -4% and the Z score was 0.51.
With `CCOc1cc(CNn2nnnc2N)cc(Br)c1OCC(=O)NC1CCCCC1` the “% Inhibition” value was -3% and the Z score was 0.36.
With `CS(=O)(=O)CCN(CC1CC1)C1CCCCC1` the “% Inhibition” value was 14% and the Z score was -1.64.
For `Cc1nnc(CN[C@H](c2ncc(C)s2)C2CC2)o1`, the “% Inhibition” value was -10% and the Z score was 1.12.
With `CCOC(=O)c1cn(Cc2c(F)cccc2Cl)c2nc(C)ccc2c1=O` the “% Inhibition” value was 1% and the Z score was -0.19.
With `CC(C)(CNC(=O)c1ccccc1)CNC1=NS(=O)(=O)c2ccccc21` the “% Inhibition” value was 31% and the Z score was -3.46.
For `Cc1ccccc1-c1ncc(-c2nccn2CCS(=O)(=O)N(C)C)s1`, the “% Inhibition” value was -10% and the Z score was 1.82.
In the case of `CC(C)[C@H](NC(=O)c1ccc(-n2cnnn2)cc1)c1nc2ccccc2n1C`, the “% Inhibition” value is reported as -9% and the Z score is reported as 1.21.
In the case of `CCc1ccccc1C(N)CNC(=O)N1CCCC(OC)CC1` (stereo not given), the “% Inhibition” value is reported as -8% and the Z score is reported as 1.27.
`Cc1n[nH]cc1CN(C)Cc1cnc(N2CCOCC2)nc1` was tested, and the “% Inhibition” value was 8% and the Z score was -1.23.
For `CCC(=O)Nc1ccc(F)c(NC(=O)N[C@@H](C)Cn2nc(C)cc2C)c1`, the “% Inhibition” value was 6% and the Z score was -1.09.
With `Cc1nn(C)cc1C(C)NC(=O)N1CCCC1Cc1ccc(F)cc1` (stereo not given) the “% Inhibition” value was -13% and the Z score was 2.1.
`Cc1noc(C)c1C(=O)NCc1ccc(N2CCCCC2)nc1` was tested, and the “% Inhibition” value was 13% and the Z score was -1.67.
In the case of `CN(C)C(=O)c1cncc(NCCCC[C@H]2CCCO2)n1`, the “% Inhibition” value is reported as -1% and the Z score is reported as 0.13.
With `Cc1ccncc1C(=O)N(C)[C@@H](C)CC(N)=O` the “% Inhibition” value was -1% and the Z score was 0.19.
For `CCc1nn(-c2ccc(OC)cc2)c(Oc2ccc(F)cc2F)c1CN(CCOC)C(=O)c1ccco1`, the “% Inhibition” value was 8% and the Z score was -1.36.
In the case of `Cc1nonc1CC(=O)NCCCn1ccnn1`, the “% Inhibition” value is reported as -4% and the Z score is reported as 0.49.
For `O=C(c1ccc(Br)o1)N1CC(N2CCCC2)C1`, the “% Inhibition” value was -11% and the Z score was 1.74.
In the case of `O=S1(=O)CC[C@H](N(CCO)Cc2c[nH]nc2-c2ccc(-c3ccccc3)cc2)C1`, the “% Inhibition” value is reported as -1% and the Z score is reported as 0.1.
For `CN1CCN2CCN(Cc3ccc(Cn4cccn4)cc3)C[C@H]2C1=O`, the “% Inhibition” value was -7% and the Z score was 1.07.
With `CCCCN1C(=O)[C@@H]2C[C@@H](O)CN2C2(CN(CC(C)C)C2)C1=O` the “% Inhibition” value was -10% and the Z score was 1.82.
For `O=S(=O)(c1ccc(N2CCOCC2)c2nonc12)N1CCOCC1`, the “% Inhibition” value was -7% and the Z score was 1.25.
`O=c1[nH]c2ccccc2n1C1CCN(S(=O)(=O)c2ccc(F)cc2)CC1` was tested, and the “% Inhibition” value was 7% and the Z score was -0.82.
In the case of `CCOc1cncc(N[C@H]2c3ccccc3C[C@H]2O)n1`, the “% Inhibition” value is reported as -3% and the Z score is reported as 0.29.
`O=C(NCc1ccc(Cl)s1)N1CCS(=O)(=O)CC1` was tested, and the “% Inhibition” value was -2% and the Z score was 0.31.
With `C=CCN1CC[C@H](N(C)S(=O)(=O)CCC(C)(C)C)C1=O` the “% Inhibition” value was 2% and the Z score was -0.35.
`N#Cc1ccc(NC2CC2)c(NC(=O)CS(=O)(=O)Cc2cccc(Br)c2)c1` was tested, and the “% Inhibition” value was -9% and the Z score was 1.32.
`CC(NC(=O)C1CCCO1)C1CCCO1` (stereo not given) was tested, and the “% Inhibition” value was -4% and the Z score was 0.56.
For `CC[C@H]1CCCCN1C(=O)Cn1c(=O)sc2c(C)cccc21`, the “% Inhibition” value was 0% and the Z score was 0.05.
For `C[C@@]1(C(F)F)CN(CCOc2ccc(C(=O)O)cc2Cl)CCO1`, the “% Inhibition” value was -2% and the Z score was 0.35.
`CCc1nsc(N2CCO[C@@H](C)C2)n1` was tested, and the “% Inhibition” value was -17% and the Z score was 2.06.
For `Cn1c(=O)c(C(=O)N2CCN(c3ccc(F)cc3)CC2)cc2cccnc21`, the “% Inhibition” value was -14% and the Z score was 1.85.
In the case of `CC(C)(C)n1ncc2c(NC3(CO)CCCC3)ncnc21`, the “% Inhibition” value is reported as -9% and the Z score is reported as 0.9.
In the case of `CCCCNC(=O)NC[C@@H]1CCCC[C@@H]1N1CCOCC1`, the “% Inhibition” value is reported as -2% and the Z score is reported as 0.32.
In the case of `COCCn1nnnc1NC(=O)C1CCN(c2ccncc2C)CC1`, the “% Inhibition” value is reported as -10% and the Z score is reported as 1.74.
With `Cn1c(CO)nnc1[C@H]1C[C@H](Nc2ncccc2C(=O)c2nccs2)C1` the “% Inhibition” value was -18% and the Z score was 1.99.
For `CCOCCS(=O)(=O)NC(=O)c1cccc(C)n1`, the “% Inhibition” value was -6% and the Z score was 0.8.
For `COc1ccc(CC(=O)Nc2nnc([C@H]3CC(=O)N(c4ccc(OC(F)(F)F)cc4)C3)o2)cc1`, the “% Inhibition” value was 11% and the Z score was -1.66.
For `CC(C)c1ocnc1C(=O)NCc1cc2n(n1)CCN(S(C)(=O)=O)C2`, the “% Inhibition” value was -1% and the Z score was 0.15.
In the case of `CC(C)N1CC2(CCN(C(=O)Nc3ccc4c(c3)OCCO4)CC2)[C@H]1c1ccccc1`, the “% Inhibition” value is reported as 5% and the Z score is reported as -0.83.
`CCS(=O)(=O)N1CCC[C@H](C(=O)NOCc2cccc(C)n2)C1` was tested, and the “% Inhibition” value was -3% and the Z score was 0.5.
For `CN(Cc1ccc(F)cc1)C(=O)C[C@]1(c2cccc(F)c2)CC(=O)N(Cc2cccnc2)C1=O`, the “% Inhibition” value was -13% and the Z score was 1.83.
`O=S(=O)(c1cccs1)N1CC[C@H](Nc2cccnc2)C1` was tested, and the “% Inhibition” value was -12% and the Z score was 1.57.
For `CC(=O)N1CC[C@H]2[C@H](CCCN2Cc2ccc(-c3ccco3)cc2)C1`, the “% Inhibition” value was -4% and the Z score was 0.58.
With `Cc1ccsc1CN(C)C(=O)C1(Oc2cccnc2C)CCNCC1` the “% Inhibition” value was -12% and the Z score was 1.58.
`O=C(NCCN1CCOCC1)c1cc(-c2ccc3c(c2)OCCO3)nc2ccccc12` was tested, and the “% Inhibition” value was -13% and the Z score was 1.81.
In the case of `O=S(=O)(c1ccc(/C=C/c2ccccc2)cc1)N1CCOCC1`, the “% Inhibition” value is reported as -17% and the Z score is reported as 1.98.
For `Cc1cc(C(=O)N2CC[C@H](CN)C2)c2ccc(Br)cc2n1`, the “% Inhibition” value was -6% and the Z score was 0.74.
`Cc1cccnc1CCn1cnc(-c2ccccc2)c1-c1cccnc1` was tested, and the “% Inhibition” value was 7% and the Z score was -0.97.
With `C[C@H]1CNCCN1C(=O)c1coc2ccccc12` the “% Inhibition” value was 34% and the Z score was -0.78.
With `O=C(Nc1nn(Cc2ccccc2)c2cccc(N3CCOCC3)c12)[C@H]1CCCO1` the “% Inhibition” value was -23% and the Z score was 2.65.
`Cc1cn([C@@H](C)c2ccccc2)nc1NC(=O)Cn1ncc(=O)c2ccccc21` was tested, and the “% Inhibition” value was -15% and the Z score was 1.44.
For `Cc1ccc(C)c(OCCN2C(=O)N[C@@]3(CCCCc4ccccc43)C2=O)c1`, the “% Inhibition” value was 5% and the Z score was -1.14.
For `CCc1c(C)[nH]c2c(-c3ccccc3)c(-c3ccccc3)nn2c1=O`, the “% Inhibition” value was -26% and the Z score was 3.11.
`CCn1c(-c2cc(NC(=O)COc3ccccc3)[nH]n2)cc2cc(OC)ccc21` was tested, and the “% Inhibition” value was 13% and the Z score was -1.77.
For `CC[C@H]1C(=O)NCCN1C(=O)Nc1ccc(OC)c(OC(C)C)c1`, the “% Inhibition” value was 7% and the Z score was -0.77.
For `Cc1ccc(CNC(=O)N2CCC3(CC2)[C@H](O)C[C@@H]3O)cc1`, the “% Inhibition” value was -6% and the Z score was 0.86.
In the case of `O=C(NC1CCCCCCC1)c1cccc(C(=O)NC2CCCCCCC2)c1`, the “% Inhibition” value is reported as 2% and the Z score is reported as -0.3.
For `Cc1c(Cl)cccc1NC(=O)Cn1c(COc2ccccc2)nc2ccccc21`, the “% Inhibition” value was 3% and the Z score was -0.58.
For `COCCN(Cc1cccs1)[C@@H](C)C(=O)Nc1ccccn1`, the “% Inhibition” value was 2% and the Z score was -0.26.
In the case of `Cn1ncc(NC(=O)Cn2ccc(-c3ccc(F)c(F)c3)n2)n1`, the “% Inhibition” value is reported as 0% and the Z score is reported as -0.09.
`Oc1cc(-c2ccc(Cl)cn2)cc2c1OCCN(Cc1nccs1)C2` was tested, and the “% Inhibition” value was -20% and the Z score was 3.05.
In the case of `O=c1ccccn1Cc1nc(C2CC2)nn1-c1cccc(Cl)c1`, the “% Inhibition” value is reported as 7% and the Z score is reported as -1.25.
With `O=C(c1cn[nH]c1)N1CCC2(CCCC2)C1` the “% Inhibition” value was -13% and the Z score was 1.61.
With `Cc1ccccc1-n1nc(C(=O)NCCC(C)C)nc1CCc1ccccc1` the “% Inhibition” value was 7% and the Z score was -1.16.
For `Clc1cnc(N2CCc3cn[nH]c3C2)s1`, the “% Inhibition” value was -10% and the Z score was 1.99.
With `COc1ncccc1C(=O)N1CC[C@H](Oc2ccc3ccccc3n2)C1` the “% Inhibition” value was -7% and the Z score was 1.41.
`CCOc1ccc(CN2CCC[C@H]2c2nc(C)no2)cc1COC(C)=O` was tested, and the “% Inhibition” value was -6% and the Z score was 0.9.
In the case of `Cc1noc2nc(C3CC3)cc(C(=O)N(Cc3ccco3)c3ccccc3F)c12`, the “% Inhibition” value is reported as -2% and the Z score is reported as 0.43.
For `CN(C(=O)c1ccnc(OCC(F)F)c1)c1ccnn1C`, the “% Inhibition” value was 8% and the Z score was -1.26.
`CN(CCO)C(=O)Nc1ccc(OC2CCC2)c(F)c1` was tested, and the “% Inhibition” value was -18% and the Z score was 1.77.
With `CN(C)C[C@H]1CCN(C(=O)N(Cc2ccco2)c2ccc(F)cc2)C1` the “% Inhibition” value was -3% and the Z score was 0.63.
With `COc1cc(C)ccc1OCc1nc(C(=O)NCc2ccc3c(c2)OCO3)cs1` the “% Inhibition” value was -12% and the Z score was 1.16.
For `CCN(CCCN(C)C)C(=O)N[C@@H](C)c1cc2ccccc2o1`, the “% Inhibition” value was -2% and the Z score was 0.29.
With `CCc1cc(CNC(=O)N(C)CCc2cccs2)[nH]n1` the “% Inhibition” value was 5% and the Z score was -0.94.
For `CC1(C)COc2c(S(=O)(=O)Nc3cc4ccccn4n3)cnn2C1`, the “% Inhibition” value was -9% and the Z score was 1.4.
